# Laboratory results taken from PubChem BioAssay AID1345083 (National Center for Advancing Translational Sciences (NCATS), 2018).
# “And” between values parts separate entries of the source, which are not always exact repeats. Identical values can stand only once. Among all 94,000 compounds or so, about 6,200 (6.6%) were called active. The shares of active, inactive and inconclusive entries below differ from those in the screen. Calls follow the shape of the dose curve; as a rule, active = well fitted inhibition curve with a large enough effect; inconclusive = small, poorly fitted or top-dose-only effect; inactive = flat fitted curve, though single readings scatter. Where the call is inconclusive, the potency comes from a doubtful curve fit.
# Assay: Cytotoxic Profiling in HEK 293 Cell Line of Diverse Libraries Using Quantitative High-Throughput Screening; also: nearly all actives have a fitted effect of over 60% in size
# Conditions: HEK 293 viability, ATP luminescence (CellTiter-Glo), 48-72 h; series mostly up to 115 µM
# Outline: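 Pintool-delivered compounds were incubated with HEK 293 cells (250 cells/well) at 37 degree Celsius for 48 or 72 hr. ATP-dependent luminescence (CellTiter-Glo) then reported remaining viable cells.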
# Potency is read from the fitted curve at half-maximal effect; tags tell the direction and shape of the fitted curve.
row,Structure (SMILES),Potency
1,CN(C)C(=O)C1CCCN(Cc2cccc(-c3cccs3)c2)C1 (stereo not drawn),active: 100 µM
2,CCc1ccc(S(=O)(=O)N2CCN(C3CCN(CCC(C)C)C3=O)CC2)cc1 (stereo not drawn),"inconclusive: 89.1 µM [inhibitor, single point]"
3,O=C(Nc1ccc(Cl)cc1)N1CCC(c2nn(-c3ccccn3)c(=O)[nH]2)CC1,inactive
4,Cn1cccc1C(=O)NC1CCCN(c2cc(-c3ccc(Cl)cc3)[nH]n2)C1 (stereo not drawn),active: 39.8 µM
5,O=C(NCCc1ccc(Cl)cc1)c1cc(-c2ccc(Cl)cc2Cl)c2cccn2n1,"inconclusive: 89.1 µM [inhibitor, partial curve, poor fit]"
6,Cc1ccc2[nH]c(CCCn3cc(-c4nccn4C)nn3)nc2c1C,inactive
7,O=C(NCCc1ccc(Cl)cc1)C1CCc2nnc(C3CCN(C(=O)c4ccc(Cl)cc4Cl)CC3)n21 (stereo not drawn),inactive
8,COc1ccc(CC(=O)N2C[C@@H]3C[C@H](C2)c2c(-c4ccc(NC(C)=O)cc4)ccc(=O)n2C3)cc1,inactive
9,Fc1ccc2c(c1)nc1n2[C@@H](CNCc2cnc3ccccc3c2)COC1,"inconclusive: 79.4 µM [inhibitor, partial curve]"
10,COc1ccc(CC(=O)N2CCN(C(=O)c3cccc(-c4ccccc4OC)c3)CC2)cc1,"inconclusive: 31.6 µM [inhibitor, partial curve, poor fit]"
11,Cn1c(C(=O)NCCCc2nnc(N)s2)cc(=O)n(C)c1=O,inactive
12,O=C(c1ccc(F)cc1)N1CCN(c2cc(-c3ccc(F)cc3)[nH]n2)CC1,"inconclusive: 56.2 µM [inhibitor, partial curve, poor fit]"
13,Cn1cc(CC(=O)N2CCCc3ncc(C(=O)N4CCN(Cc5ccccc5)CC4)cc32)c2ccccc21,"inconclusive: 50.1 µM [inhibitor, partial curve, poor fit]"
14,Cc1ccc(Cn2c(C3CCN(C(=O)COc4cccc(C)c4)CC3)n[nH]c2=O)cc1,inactive
15,COCC(=O)N[C@H]1C[C@H]2C(=O)NC[C@@H](CCC(=O)NCc3cccnc3)N2C1,inactive
16,Cc1cc(C)cc(-c2ccc(C(=O)NCCCn3ccnc3C(C)C)cn2)c1,"inconclusive: 50.1 µM [inhibitor, partial curve, poor fit]"
17,c1ccc(CN2CCC[C@H]2c2nc(-c3ccnc(N4CCOCC4)c3)no2)nc1,"inconclusive: 100 µM [inhibitor, partial curve, poor fit]"
18,COc1ccc(C(=O)NC(C(=O)NC(C)C)C2CCN(C(=O)c3ccccc3)CC2)cc1 (stereo not drawn),inactive
19,O=C(Cc1ccc(Cl)cc1)NC1CCN(c2cc(-c3cccs3)[nH]n2)C1 (stereo not drawn),"inconclusive: 44.7 µM [inhibitor, partial curve, poor fit]"
20,Cc1cc(=O)n(CC(=O)Nc2ccc(Br)cc2)c(N2CCN(c3ccccc3)CC2)n1,"inconclusive: 31.6 µM [inhibitor, partial curve, poor fit]"
21,O=C(NCC(F)F)C1CN(c2cccc(Cl)c2)C(=O)N1 (stereo not drawn),inactive
22,Cc1noc(-c2cccc(OC3CN(C(=O)NC4CCCCC4)C3)c2)n1,"inconclusive: 56.2 µM [inhibitor, partial curve, poor fit]"
23,CCc1ccc(NC(=O)Cn2c(N3CCc4ccccc4C3)nc(C)cc2=O)cc1,"inconclusive: 10 µM [inhibitor, full curve, poor fit]"

row,Structure (SMILES),Potency
1,CC(C)C(=O)Nc1cc(-c2ccncc2)nn1C,inactive
2,Cc1ccc(C(=O)N2CCCCCCNC(=O)[C@@H]3C[C@@H](C(=O)N4CCc5ccccc5C4)C[C@@H]32)s1,"inconclusive: 50.1 µM [inhibitor, partial curve, poor fit]"
3,CC1=C[C@@H](CNC(=O)Cc2ccccc2)[C@H](C(C)C)C[C@H]1Cc1nc2ccncc2[nH]1,"inconclusive: 35.5 µM [inhibitor, full curve]"
4,COCc1ccc2c(c1)c(OC(C)(C)C(=O)Nc1ccccn1)nn2Cc1ccccc1,active: 63.1 µM
5,Cc1cccc(-c2ocnc2C(=O)N2CC[C@H](CO)[C@H](NC(=O)C3CC3)C2)c1,"inconclusive: 50.1 µM [inhibitor, partial curve, poor fit]"
6,Cn1cc2c3c(cccc31)CN(C(=O)CC(C)(C)C)CC2,inactive
7,CN1CCN(C(=O)C2CN(c3ccnc4ccnn34)C2)CC1,inactive
8,O=C(NC1CCN(CCn2nc3n(c2=O)CCCC3)C1)c1cccnc1 (stereo not drawn),inactive
9,CC(C)c1nc2c(c(-c3ccc(O)cc3)n1)CN(Cc1cccc(F)c1)CC2,"inconclusive: 56.2 µM [inhibitor, partial curve, poor fit]"
10,O=C1NCc2ccccc2CC12CCCN2CC1CC=CCC1 (stereo not drawn),"inconclusive: 79.4 µM [inhibitor, partial curve]"
11,Cc1noc2c(NC3CCN(C)CC3)cc(-c3cccnc3)nc12,"inconclusive: 89.1 µM [inhibitor, partial curve]"
12,CCc1cc(N2CCOC(c3ccc4cc(OC)ccc4c3)C2)nc(C)n1 (stereo not drawn),active: 35.5 µM
13,Cc1ccsc1C(=O)NC1CCN(c2cc(-c3ccccc3)[nH]n2)C1 (stereo not drawn),"inconclusive: 89.1 µM [inhibitor, single point]"
14,O=C(NCCc1ccc(Cl)cc1)c1nc(-c2ccsc2)c2ccccn12,inactive
15,O=C1Nc2ccccc2OCC12CCN(Cc1cccs1)CC2,"inconclusive: 25.1 µM [inhibitor, full curve, poor fit]"
16,NCc1ccc(-c2ccccn2)cc1,inactive
17,COc1cccc(CCC2CCCN(C(=O)c3ccc(OC)o3)C2)c1 (stereo not drawn),active: 35.5 µM
18,CCCCNC(=O)N1CCc2c(c3cc(F)ccc3n2C)C1,"inconclusive: 56.2 µM [inhibitor, partial curve, poor fit]"
19,CC(C)C1=NS(=O)(=O)c2cc(NC(=O)c3ccco3)ccc2N1c1ccccc1,"inconclusive: 44.7 µM [inhibitor, partial curve, poor fit]"
20,O=C(Cn1nc2c(cc1=O)CCCCC2)NCCn1cnc2ccccc2c1=O,inactive
21,CCS(=O)(=O)N1CCc2nc(-c3ccccc3)[nH]c2C1,inactive
22,Cn1ncc2c(C(=O)NCc3cccc(F)c3)cc(-c3cccc(F)c3)nc21,"inconclusive: 28.2 µM [inhibitor, full curve, poor fit]"
23,O=C(Nc1cnc(-c2cccc(Cl)c2)nc1)c1cc(F)cc(F)c1,"inconclusive: 22.4 µM [inhibitor, full curve]"

row,Structure (SMILES),Potency
1,Cc1nc(CCNS(=O)(=O)Cc2cccc(Cl)c2)no1,inactive
2,O=C(NCCCc1ccccc1)c1ccc2oc(-c3cccnc3)nc2c1,"inconclusive: 44.7 µM [inhibitor, partial curve]"
3,O=C(NC1CC1)c1cc(-c2cccc(C(F)(F)F)c2)c2cccn2n1,active: 35.5 µM
4,Cc1n[nH]c(C)c1C(N)C(=O)NCCN1CCCC1 (stereo not drawn),inactive
5,CCOc1cccc(CNC(=O)C2CCN(c3cnn(CC4CC4)c(=O)c3)C2)c1 (stereo not drawn),"inconclusive: 79.4 µM [inhibitor, single point]"
6,O=C(NCc1cccc(F)c1)c1csc(N2CCN(c3ccc(Cl)cc3)CC2)n1,"inconclusive: 89.1 µM [inhibitor, single point]"
7,COCCNC(=O)[C@H]1C[C@H](Oc2ccccc2)CN1Cc1ccc(OC(F)(F)F)cc1,"inconclusive: 79.4 µM [inhibitor, partial curve, poor fit]"
8,COc1cc(=O)n2c(c1C(=O)Nc1ccc(Cl)cc1F)CCCC2,"inconclusive: 100 µM [inhibitor, single point]"
9,COc1ccccc1C(=O)NC1CCN(Cc2cccc(-c3cccs3)c2)CC1,"inconclusive: 56.2 µM [inhibitor, partial curve, poor fit] and active: 22.4 µM"
10,COc1ccc(-n2c(=O)c3c(n2Cc2ccccc2)CN(Cc2ccc(F)cc2)CC3)cc1,"inconclusive: 8.91 µM [inhibitor, partial curve, poor fit]"
11,Cc1ccc(OC(=O)N2CCC(Oc3ccc4c(cnn4CCC(=O)O)c3)CC2)cc1,inactive
12,CCO[C@H]1CN(C(=O)c2cc3ccc(OC)cc3n2C)C[C@@H]1O,inactive
13,O=C(Cc1cccc(C(F)(F)F)c1)N1CCCc2ncc(C(=O)N3CCCC[C@@H]3Cc3ccccc3)cc21,active: 79.4 µM
14,Cc1ccc(-c2cn3c(n2)N(S(C)(=O)=O)CCC3)cc1,"inconclusive: 31.6 µM [inhibitor, partial curve]"
15,Cc1ccc(C(=O)NCC2CCCCC(=O)N2)cn1 (stereo not drawn),inactive
16,Cc1ccccc1CN1CCCC12Cc1ccccc1CNC2=O (stereo not drawn),"inconclusive: 56.2 µM [inhibitor, partial curve, poor fit]"
17,COc1ccccc1-c1cc(C(=O)NCc2ccc(C(F)(F)F)cc2)c2cnn(C)c2n1,"inconclusive: 44.7 µM [inhibitor, partial curve, poor fit]"
18,COc1ccc(CC(=O)N2Cc3ccccc3CC3(CCN(CC4CCNC4)C3)C2)cc1 (stereo not drawn),"inconclusive: 56.2 µM [inhibitor, partial curve, poor fit]"
19,CN(Cc1cc(C[C@@H]2C[C@H](NC(=O)COc3ccccc3)C2(C)C)no1)c1ccccc1,"inconclusive: 50.1 µM [inhibitor, full curve]"
20,CC(C)c1ccc(CNC(=O)C2CCN(c3cc(C(F)(F)F)ncn3)CC2)cc1,"inconclusive: 44.7 µM [inhibitor, partial curve]"
21,Cc1ccc(-c2nnc3ccc(NCc4cccs4)nn23)nc1,active: 100 µM
22,COCCN1C(=O)CS(=O)(=O)C12CCN(C(=O)c1ccc(Cl)cc1)CC2,inactive
